{"source": "PubChem BioAssay AID1468", "about": "(National Center for Advancing Translational Sciences (NCATS), 2008)", "note": "About 1,100 (0.39%) of roughly 280,000 compounds were called active. The shares of active, inactive and inconclusive entries below differ from those in the screen. The call rests on the fitted dose curve; in most records, active means well fitted inhibition curve with a large enough effect; inconclusive means small, poorly fitted or top-dose-only effect, or effect the other way; inactive means flat fitted curve, though single readings scatter. No potency is given beside an inconclusive call; the fits are too rough. On the % scale 0 is the no-effect control and ±100 the full control effect; potency means the concentration at half of the fitted maximal effect; tags describe the fitted curve by direction and shape."}
{"target": "Microtubule-associated protein tau (Homo sapiens) (UniProt P10636)", "sequence (P10636 whole entry, looked up, the tested form may be a part)": "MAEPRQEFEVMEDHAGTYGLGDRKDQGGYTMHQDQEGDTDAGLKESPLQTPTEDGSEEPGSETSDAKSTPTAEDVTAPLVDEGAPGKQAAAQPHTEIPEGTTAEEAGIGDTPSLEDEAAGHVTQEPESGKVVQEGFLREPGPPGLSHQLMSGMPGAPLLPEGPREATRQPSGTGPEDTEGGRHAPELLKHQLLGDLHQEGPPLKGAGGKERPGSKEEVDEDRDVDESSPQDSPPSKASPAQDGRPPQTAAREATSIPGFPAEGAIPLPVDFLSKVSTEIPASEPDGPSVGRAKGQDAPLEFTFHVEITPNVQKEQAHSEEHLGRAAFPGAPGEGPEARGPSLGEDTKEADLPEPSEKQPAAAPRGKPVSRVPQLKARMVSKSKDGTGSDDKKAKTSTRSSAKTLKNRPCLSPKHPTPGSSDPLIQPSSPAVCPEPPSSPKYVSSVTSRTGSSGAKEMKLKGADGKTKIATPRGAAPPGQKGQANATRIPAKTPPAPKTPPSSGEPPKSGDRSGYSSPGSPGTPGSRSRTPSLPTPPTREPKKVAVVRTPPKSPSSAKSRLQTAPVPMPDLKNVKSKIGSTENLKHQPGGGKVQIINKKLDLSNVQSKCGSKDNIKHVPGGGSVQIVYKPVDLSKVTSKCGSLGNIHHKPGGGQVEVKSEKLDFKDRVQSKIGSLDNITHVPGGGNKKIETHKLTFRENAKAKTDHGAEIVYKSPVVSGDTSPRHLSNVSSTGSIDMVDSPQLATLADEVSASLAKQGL", "test": "qHTS for Inhibitors of Tau Fibril Formation, Fluorescence Polarization; further: nearly all actives have a fitted effect of over 55% in size", "conditions": "K18 P301L tau heparin fibrillization, Alexa594 FP, 6 h; series mostly up to 57.7 µM; activity, negative = inhibition: at the top concentration", "method_in_brief": "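Human tau K18 […] P301L fragment, 15 uM unlabeled plus 0.24 uM Alexa 594-labeled tau (final), with compound and 20 uM heparin in 100 mM sodium acetate pH 7; 6 hr at 37 C, then Alexa 594 FP read.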"}
{"smiles": "Cc1cc2nc3c(=O)[nH]c(=O)nc-3n(CC(O)C(O)C(O)CO)c2cc1C", "note": "(stereo not drawn)", "Potency": "inactive"}
{"smiles": "O=C(CN1CCN(c2nc(-c3ccc(F)cc3)cs2)CC1)Nc1ccc2c(c1)OCO2", "activity, negative = inhibition": "inactive: 10.7%"}
{"smiles": "COc1ccc(CNC(=O)C23CN(Cc4ccccc4)CC2C(c2ccc([N+](=O)[O-])cc2)=NO3)cc1", "note": "(stereo not drawn)", "Potency": "inconclusive [activator, single point]"}
{"smiles": "FC(F)(F)c1cccc(NC(=S)NC(c2ccccc2)c2ccccc2)c1", "activity, negative = inhibition": "inactive: -17.9%"}
{"smiles": "CN(C(=O)c1cc2c(s1)-c1ccc(Cl)cc1SC2)c1cccc(C(F)(F)F)c1", "activity, negative = inhibition": "inactive: -3.79%"}
{"smiles": "COc1ccc(CCNC(=O)c2cnc3sc(N4CCCC4)nn3c2=O)cc1OC", "activity, negative = inhibition": "inactive: 5.89%"}
{"smiles": "Cc1cc(NC(=O)c2cc3cccc([N+](=O)[O-])c3[nH]2)ccc1F", "Potency": "inconclusive [activator, partial curve]"}
{"smiles": "CC(=O)Nc1ncc(Cc2cc(Cl)ccc2Cl)s1", "Potency": "inconclusive [inhibitor, single point]"}
{"smiles": "CCCCn1c(O)c(/C=C/C=C/C=Nc2ccccc2)sc1=S", "Potency": "inconclusive [inhibitor, single point]"}
{"smiles": "COc1ccc(NC(=S)N(CCCN2CCN(C)CC2)Cc2cccs2)cc1", "activity, negative = inhibition": "inactive: -3.34%"}
{"smiles": "CCc1nn2c(=O)cc(COC(=O)c3ccccc3NC(=O)C3CCCCC3)nc2s1", "Potency": "inconclusive [activator, single point]"}
{"smiles": "N#CC(c1nc2ccccc2nc1N1CCOCC1)S(=O)(=O)c1ccccc1", "note": "(stereo not drawn)", "activity, negative = inhibition": "inactive: -3.12%"}
{"smiles": "NC(=O)CNC(=O)[C@@H]1CC2(CC(c3cccc([N+](=O)[O-])c3)=NO2)CN1C(=O)c1ccccc1", "note": "(stereo partly drawn)", "Potency": "inconclusive [inhibitor, single point]"}
{"smiles": "CCCn1c(SCC(N)=O)nc2c(c1=O)C1(CCCC1)Cc1ccccc1-2", "Potency": "inconclusive [inhibitor, single point]"}
{"smiles": "COc1cc2ccccc2cc1C(=O)N1CCN(c2nc3ccc(F)cc3s2)CC1", "activity, negative = inhibition": "inactive: -8%"}
{"smiles": "Cc1ccc(/C(O)=C/c2nc3cc(C)ccc3oc2=O)cc1", "activity, negative = inhibition": "inactive: -1.13%"}
{"smiles": "CCOC(=O)c1c(SCC(=O)Nc2cc(Cl)cc(Cl)c2)nc(=O)[nH]c1C", "activity, negative = inhibition": "inactive: -15.5%"}
{"smiles": "O=C(Nc1cccc(C(F)(F)F)c1)c1ccc2nc(N3C(=O)CCC3=O)sc2c1", "Potency": "inconclusive [inhibitor, partial curve]"}
{"smiles": "Cc1ccc(-n2c([S-])c(C(=O)Nc3ccc(OC(F)F)cc3)[n+]3ccc(C(=O)NCCO)cc23)cc1C", "Potency": "inconclusive [inhibitor, partial curve]"}
{"smiles": "CCN(CC)c1ccc(NC(=O)Cn2nc(C)n3cccc3c2=O)c(C)c1", "Potency": "inconclusive [inhibitor, partial curve, poor fit]"}
{"smiles": "CSc1nnc2c3ccccc3n(Cc3ccccc3)c2n1", "activity, negative = inhibition": "inactive: -3.92%"}
{"smiles": "Cc1ccccc1NC(=O)CCC(=O)N/N=C/c1c[nH]c2ccccc12", "Potency": "inconclusive [activator, partial curve]"}
{"smiles": "CC(C(Sc1ccccc1N)c1ccccc1)[N+](=O)[O-]", "note": "(stereo not drawn)", "Potency": "inconclusive [inhibitor, partial curve]"}
{"smiles": "O=C(Nc1cccc(C(=O)OCc2cc(=O)n3c4c(sc3n2)CCCC4)c1)c1ccccc1", "Potency": "inconclusive [inhibitor, partial curve]"}
{"smiles": "COc1ccc(C2CC(=O)Oc3c(C(CCN4CCCC(C)C4)c4ccc(N(C)C)cc4)c(OC)cc(OC)c32)cc1", "note": "(stereo not drawn)", "activity, negative = inhibition": "inactive: 11.3%"}
{"smiles": "CC(=O)Nc1ccc(S(=O)(=O)N2CCN(CC(O)COc3ccc4ccccc4c3)CC2)cc1", "note": "(stereo not drawn)", "Potency": "inconclusive [inhibitor, full curve, poor fit]"}
{"smiles": "CCOc1ccc(S(=O)(=O)Nc2nc3ccccc3nc2Nc2ccc(OC)cc2)cc1", "Potency": "inconclusive [activator, partial curve]"}
{"smiles": "CN(CCCNC(=O)CN1C(=O)CC(C)(C)S(=O)(=O)c2ccccc21)C1CCCCC1", "Potency": "inconclusive [inhibitor, full curve, poor fit]"}
{"smiles": "CCC(=O)N(Cc1ccco1)c1nc(-c2ccc(OC)cc2)cs1", "Potency": "inconclusive [inhibitor, single point]"}
{"smiles": "Cc1ccc(N/N=C/c2ccc(N3CCOCC3)cc2)cc1C", "activity, negative = inhibition": "inactive: 8.15%"}
{"smiles": "O=C(CCc1ccccc1)N/N=C/c1cc(Br)ccc1O", "activity, negative = inhibition": "inactive: 0.514%"}
{"smiles": "Cc1cnn(C(=S)NCc2ccc(Cl)cc2)c1", "Potency": "inconclusive [inhibitor, single point]"}
{"smiles": "O=C(NCC1CCCO1)[C@@H]1CSC2c3ccccc3C(=O)N21", "note": "(stereo partly drawn)", "Potency": "inconclusive [inhibitor, partial curve]"}
{"smiles": "Cc1nc(-c2ccccn2)sc1C(=O)Nc1ccc(Cl)c(Cl)c1", "Potency": "inconclusive [inhibitor, partial curve]"}
{"smiles": "O=C(OCn1ncc(Br)c(Br)c1=O)c1ccccc1Cl", "Potency": "inconclusive [inhibitor, full curve]"}
{"smiles": "CCc1c(C)sc(NC(=O)Cn2nc(C)c([N+](=O)[O-])c2C)c1C(N)=O", "Potency": "inconclusive [inhibitor, single point]"}
{"smiles": "CCc1nn(CC(=O)NCc2ccccc2Cl)c(=O)c2cccn12", "Potency": "inconclusive [inhibitor, single point]"}
{"smiles": "O=S(=O)(c1ccccc1)c1nc(-c2cccs2)oc1SCc1ccc(F)cc1", "Potency": "inconclusive [inhibitor, partial curve]"}
{"smiles": "CN(C)S(=O)(=O)c1ccc(C(=O)Nc2nc(-c3ccccc3)c(C(=O)c3ccccc3)s2)cc1", "Potency": "inconclusive [inhibitor, full curve, poor fit]"}
{"smiles": "O=C1C2=C(NC(=S)NC2c2ccc(Cl)cc2)NC(c2ccc(Cl)cc2)N1c1ccc(Cl)cc1", "note": "(stereo not drawn)", "Potency": "inconclusive [inhibitor, single point]"}
{"smiles": "COc1ccc(S(=O)(=O)c2cc(NS(=O)(=O)c3ccc(Cl)cc3)c(C)c(C)c2O)cc1", "Potency": "inconclusive [inhibitor, partial curve, poor fit]"}
{"smiles": "Oc1c(C(c2ccccc2)N2CCCCC2)sc2ncnn12", "note": "(stereo not drawn)", "activity, negative = inhibition": "inactive: 2.32%"}
{"smiles": "Cc1ccc(-n2c(CNc3cccc(Cl)c3)n[nH]c2=S)cc1", "activity, negative = inhibition": "inactive: 3.25%"}
{"smiles": "N#Cc1cccc(NC(=O)c2cc3c(s2)-c2ccc(Cl)cc2SC3)c1", "Potency": "inconclusive [inhibitor, partial curve, poor fit]"}
{"smiles": "COc1ccc(C2=C(Nc3ccc(C)c(C)c3)c3ccccc3C2=O)cc1", "Potency": "inconclusive [activator, full curve, poor fit]"}
{"smiles": "CCOc1ccc(C(=O)Nc2cc(-c3nc4ccccc4s3)ccc2OC)cc1", "Potency": "inconclusive [inhibitor, partial curve]"}
{"smiles": "Cc1ccc2c(=O)cc(C(=O)Nc3ccc(S(=O)(=O)N(C)Cc4ccccc4)cc3)oc2c1", "Potency": "inconclusive [inhibitor, partial curve]"}
{"smiles": "CC(C)CCn1c(SCCc2ccccc2)nc2c1c(=O)[nH]c(=O)n2C", "activity, negative = inhibition": "inactive: 9.6%"}
{"smiles": "CCOC(=O)C[C@@H](C(=O)OCC)[C@@H]1CCCCC1=O", "activity, negative = inhibition": "inactive: -12.4% [at 11.6 µM]"}
{"smiles": "Cc1ccccc1Cn1cccc1/C=C1/C(=N)N2C=CSC2=NC1=O", "Potency": "inconclusive [inhibitor, single point]"}
{"smiles": "CC1=NN(C(=O)Cn2ccc([N+](=O)[O-])n2)C(O)(C(F)(F)F)C1", "note": "(stereo not drawn)", "activity, negative = inhibition": "inactive: 2.33%"}
{"smiles": "O=C(COC(=O)c1ccc2ccccc2c1)NCCCc1ccccc1", "Potency": "inconclusive [inhibitor, partial curve, poor fit]"}
{"smiles": "CC1CCN(C(=S)c2ccc([N+](=O)[O-])cc2)CC1", "activity, negative = inhibition": "inactive: -8.84%"}
{"smiles": "CCN(C(=O)Cn1nnc2sc(-c3ccccc3)cc2c1=O)c1cccc(C)c1", "Potency": "inconclusive [inhibitor, single point]"}
{"smiles": "O=C(Nc1cccc(Cl)c1)c1ccc(F)c(S(=O)(=O)N2CCC3(CC2)OCCO3)c1", "Potency": "inconclusive [inhibitor, single point]"}
{"smiles": "O=C(Nc1nccs1)c1ccc(COc2ccc(F)cc2)o1", "activity, negative = inhibition": "inactive: -3.71%"}
{"smiles": "CCc1ccc(-c2cc(C(=O)N3N=C(C(F)F)CC3(O)C(F)F)c3ccccc3n2)cc1", "note": "(stereo not drawn)", "Potency": "inconclusive [inhibitor, single point]"}
{"smiles": "C[C@H](NC(=O)c1nc[nH]c1C(=O)NC(c1ccccc1)c1ccccc1)C(=O)OCc1ccccc1", "Potency": "inconclusive [inhibitor, partial curve]"}
{"smiles": "CN(C)c1ncnc2c1NC1=C(S2)C(=NCCCC(=O)O)CC(C)(C)C1", "Potency": "inconclusive [inhibitor, partial curve]"}
{"smiles": "O=S(=O)(NCCc1csc2nc(-c3ccccc3)nn12)c1ccc(Cl)s1", "Potency": "inconclusive [inhibitor, partial curve, poor fit]"}
{"smiles": "Cc1cc2cc3c(cc2nc1SCC(=O)N1CCN(C(=O)c2ccco2)CC1)OCO3", "activity, negative = inhibition": "inactive: 0.235%"}
{"smiles": "CCc1cccc(NC(=S)N(CCN(C)C)C(C)c2ccncc2)c1", "note": "(stereo not drawn)", "activity, negative = inhibition": "inactive: 4.03%"}
{"smiles": "N#C/C(=C\\c1ccc(Sc2ccccc2)o1)c1nc2ccccc2[nH]1", "Potency": "inconclusive [inhibitor, partial curve, poor fit]"}
{"smiles": "COc1ccc(C(=O)N2CCN(c3cccc(Cl)c3)CC2)cc1", "activity, negative = inhibition": "inactive: 10.9%"}
{"smiles": "CCOC(=O)c1c(C)[nH]c(CCC(=O)Nc2ccc(Cl)cc2C)c1C", "activity, negative = inhibition": "inactive: -0.463%"}
{"smiles": "COc1ccc(-c2cc3cc(OC)c(OC)cc3c(C)n2)cc1C", "Potency": "inconclusive [inhibitor, single point]"}
{"smiles": "COc1ccccc1N1CCN(S(=O)(=O)c2ccc3nc(-c4ccccc4)[nH]c3c2)CC1", "Potency": "active: 22.4 µM"}
{"smiles": "O=C(NNC(=S)Nc1ccc(Cl)c(Cl)c1)c1cccc([N+](=O)[O-])c1", "Potency": "inconclusive [activator, full curve, poor fit]"}
